Drawing on the RNAGym collection of RNA variant scans (doi:10.7554/elife.90254), this text covers self-cleavage for 167 variants.

Read counts are not given, so values of variants with three or more changes are uncertain.

B1: LINE1-full (parent)
chain: UACGUAGGUGGUUUUCCCCUGAUAGUGCUAAGGGGGCCUGGAAGUUUGGACUGGGCAGAGCUCAACACAGCGUGGCAAAGUGGCUGUGGCUAGACUGCCUCUCUGGAUUCCUCGUCACUCAGCAGGGCAUCUCUGAGAGAAAUGCC

The series covers variants of B1. Nature of the series: self-cleavage, relative activity (ratio to wild type); higher = more cleavage; in vitro, sequencing; the parent is a self-cleaving ribozyme.
G34A U39C A59G G72A A140G: the self-cleavage came out at 0.03.

Regarding C37U A67U A124G, the self-cleavage is 0.03. For the variant G32A A57G U104A, the self-cleavage stood at 0.17. With G35A U45C U85C A141G, the self-cleavage stood at 0. The result for U39A C110U U143A reads 1.14; that for A31U U47A G55C, 0.19. For C37U U132C G139A C145U the value was 1.16; for G32A U91C A138G, 0.99. With A31U U46C A69U G72A, the self-cleavage was 0.09.

In the case of G35A A57U U62C U119A A140G U143A, the self-cleavage was determined as 0.03. Regarding G35U U104A A142G, the self-cleavage came to 1.02.

Consider U39A A67C U102C A121U, for which the self-cleavage is 0. U39A U46C U52G A57G A78G C90A: the self-cleavage amounted to 0.03. As to G33A A67U C116U, the self-cleavage was 0.09. For G34A U62C U85C U112C the value was 0.12. The result for C38A U62A A92U reads 0.03. For U39A A57U A64U, the self-cleavage came to 0.08. With A31U U134C A142G, the self-cleavage is 1.57. For C38U G60A U115A the value was 0.01; for G35A U62C A94U U102C A107U U109C A121G, 0; for G32A U112C A121U, 1.84. The result for C37A A78G A92G U100A A124U A136G U143A reads 0.03. On to G34U U39A A65G, for which the self-cleavage worked out at 0.03. For G35A A77G G82A A124G the value was 0.96; for G33U U39C U132A, 1.29; for U39A U47A U62C U112A A121G, 0.14. For the variant G32A A59G U134A, the self-cleavage was determined as 0.01. For C37A U39C A64U U73A U119A U134C the value was 0.39; for G34A A57G A142G, 0.75. As for G35C A57U A69G A94U C113U A140G, the self-cleavage was 0. The result for U39A A43G U73C reads 1.11. On to C37A C71U U81C, for which the self-cleavage worked out at 0.87.

In the case of U39A A92G G127C, the self-cleavage was 0.13.

As for G36A A42G U62C, the self-cleavage was 0.05. The result for G34A U132C A136G U143C reads 0.

As to G36A U62C C113U, the self-cleavage is 0.02. The result for C37U U47C U112C U130C reads 1.73. For U39A U47C U85A A94U the value was 0.15; for U39A A79G U104C, 1.02.

As for G32U A57G A79G U134C, the self-cleavage stood at 0.61.

Turning to G34U A117G A129C, the self-cleavage came to 1.15. For U39A A43G A57G U62A A79U, the self-cleavage came to 0. Take G36C U52A U62C U108C: the self-cleavage was determined as 0.03. For C37A U46A U109A the value was 1.13; for G36A U47C U132A, 0.92. The result for G33A A65G U119C reads 0.03; that for G36A A67G U91C, 0.24; that for U39A A64G C123A, 0.32. Regarding G34U U91C A142U, the self-cleavage is 0.61. The result for U39A U62C A67U G72A U104C U108C C128U reads 0.01; that for U39A U52A A124U, 1.43; that for U39A U87C U130C, 0.32. For U39A U81C U108G A138U the value was 0.22; for G34U A43G U100A, 0.91. The result for G36C A64U A124G reads 0.12. As for G36C U134A A142G, the self-cleavage was determined as 1.09.

Turning to C38A U62C C84U U130C, the self-cleavage is 0.04. As to C37U U85G U96C, the self-cleavage worked out at 0.07. As to G35A A142U C146G, the self-cleavage was determined as 1.43. As to G34U A43G A136G, the self-cleavage is 1.26. As to C37U A43G A79G U85A, the self-cleavage came to 0.1.

In the case of C37A A43G U52A U62C U115C A129G, the self-cleavage was 0. The result for U39A A121U A136G U143C reads 1.7; that for G33U U91A A94G U100G, 0.11; that for G35C U73A C116U A136G, 1.5. For G33C U46C U52C A129G the value was 0; for A31U U115A U143C, 0.86.

As for G33A A77G U96A, the self-cleavage stood at 0.1. The result for G34A U102C U132C reads 1.53.

Regarding G34A A64G A117U, the self-cleavage amounted to 0.05.

For the variant G32A U81A A94G G125A A141G, the self-cleavage is 0.31.

As to G35U G40A U134C, the self-cleavage came to 1.37. For C37U A43U U96A, the self-cleavage came out at 0.03.

On to G32A U39C U85C C113U U134C, for which the self-cleavage worked out at 0.13. The result for G36C U47A A136U A138G reads 2.38; that for A31U U85A A92G U132A, 0.23; that for G32A U46A A67G, 0.75. Turning to G35A U73A A94U C146U, the self-cleavage was 0.17.

With U39A A79U U96A U109C, the self-cleavage stood at 0.19. As for G35A C131A A140G, the self-cleavage worked out at 1.53.

In the case of U39A U47A U91C A141G, the self-cleavage was 0.15.

With C38U G106A G125U, the self-cleavage was found to be 1.81. The result for G35C G125U A142G reads 1.48; that for G32A U132A A142G, 1.07; that for C38U U102A A117U U134C, 1.65.

On to U39A U73A U119C, for which the self-cleavage came to 1.84.

In the case of G34U A50G U52A A57G A77G U85C U104A A140G, the self-cleavage came to 0. Consider U39A U52C A67U, for which the self-cleavage was found to be 0.28.

Turning to G35U U96A A138G, the self-cleavage came to 0.05. The result for G32A U81A U132C reads 2.1; that for G34U A50U A117G A138G, 0; that for C37U U115C A129G U143G, 1.22.

As to G33C A57G U73C U96A, the self-cleavage came to 0. On to G34U U47C A121G A142G, for which the self-cleavage turned out to be 1.67.

On to U39A C51U A67G A129U, for which the self-cleavage amounted to 0.28. The result for G32U A59C U62C A69G reads 0; that for U39A A78G A107G, 0.66; that for U39A U52C A79G, 0.97. For U39A A67G A117G A138G the value was 0.66; for C38A A43G U62A A77G A78U, 0.03; for G33A A65G C118U A142G, 0.04. The result for G34A U62C A129U C131U A136U reads 0.04.

For the variant G33A U52C U62A A94G, the self-cleavage was found to be 0.06. The result for G33U U96A U102C reads 0.35. The result for G35C C63U A129G reads 0.26; that for G36A A59G A117G, 0.06. The result for G35A G44A U81G U104C reads 1.23; that for G34A A57G U81A, 1.14. As for G34U G36A A138C, the self-cleavage is 0.96. On to U39A A43G U112C C118U A138G A140U, for which the self-cleavage amounted to 0.15. Take G35U G41U A69G: the self-cleavage stood at 0.11. As to G34U U62A U112A U132C, the self-cleavage came out at 0.03. The result for G35A U45C A69G C71U reads 0.08; that for G34U G105A A121U A138G, 0. U39A U73A U104A A142G: the self-cleavage turned out to be 0.57.

For G34U A50G A78G U130C, the self-cleavage turned out to be 1.23. Take G32A A117G A136U: the self-cleavage stood at 1.04. On to G34C A57U U62A U115A, for which the self-cleavage came to 0.04. On to U39A A65U U85A, for which the self-cleavage was determined as 0.03.

With G34U A65G A124U, the self-cleavage amounted to 0.03. With U39A G48A A69U U81A U108C, the self-cleavage was 0.05.

Consider G34U U39C A69U, for which the self-cleavage was 0.05. The result for U39A U45C A78G A141G reads 1.29; that for G34U A79G U100A, 0.5. On to U39A U47C G114A, for which the self-cleavage amounted to 0.78.

For U39A U46C U81C, the self-cleavage was determined as 1.25. G34A U100C U112C: the self-cleavage stood at 0.86. In the case of G36A U45C U109C, the self-cleavage is 1.34. The result for G34A U46C A92C reads 0.15. C37A A78G A79G: the self-cleavage is 0.4. As for U39A U85G U109A C128A, the self-cleavage stood at 0.12. The result for G35A U52C U96C reads 0.03. The result for G32C A50G U134C reads 1.02; that for G35A U46C A64U U81C U104C G144A, 0.28; that for G34U U100G A136G, 1.27.

Consider C37G A59C A78U, for which the self-cleavage was determined as 1.72. The result for G34U A124G A129G reads 1.

For the variant G35A G36A A57G U115C A138G, the self-cleavage was found to be 1.11.

For the variant A31U U62C A78G, the self-cleavage stood at 0.2. The result for G32A C131U A138G reads 0.78; that for A31U U39C A42U A50G A79G, 0.3; that for C38G U39C G49U A107G, 1.11. For C38U U109C U115C A129G the value was 1.46; for G34A U81C A107G U132C, 0.84. Regarding G35U G41C G48A U81C A121C A124G, the self-cleavage came to 0.22. For G35A G36C U112A the value was 0.89; for G34A U46C A69G, 0.86; for C37A U52A A69U, 0.17.

With G36A A43G U87A U91C A121U, the self-cleavage stood at 0.05. The result for G32C U39C G137A A140U reads 1.34; that for U39A A42G A69G U100A, 0.34; that for G35A U100A A140G, 0.49. As to G35A A79G U81C U115C, the self-cleavage amounted to 0.88. For G33A G86C A129G the value was 0.04; for G32A U87A U104A U112A, 0.08; for G33U U46C A78G, 1.79. The result for G33U U45C A65G reads 0.09. The result for G36U U73A A79G G88A U91C A142G reads 0.02; that for U39A A67G A69U, 0.09; that for U39A A69U U87C A107U, 0.02.

Consider G33U A94G U115A, for which the self-cleavage was found to be 0.26.

Regarding G35A G58U A79G, the self-cleavage was determined as 0.01. For U39A C71U A78G U143C the value was 0.5; for C38U U96C A138G, 0.08; for G34A U45C G74A U81A U100G U134A, 2.02. Turning to G36A G74A U143A, the self-cleavage worked out at 0.97. For the variant G34A A57G C90A U96C A142G, the self-cleavage worked out at 0.01.
